# Experimental data reported in paper PMC4336329 (PLoS ONE, 2015).
# About 2,200 (0.71%) of roughly 310,000 compounds showed an effect of 50% or more. Effects have a minus sign here. The list shows a part of the results.
# Molecular target: human ether-à-go-go-related gene (hERG) potassium channel (human, UniProt Q12809)
# Assay: primary screen, population patch clamp on CHO cells stably expressing hERG
# Chain of human ether-à-go-go-related gene (hERG) potassium channel (Q12809 whole entry, looked up): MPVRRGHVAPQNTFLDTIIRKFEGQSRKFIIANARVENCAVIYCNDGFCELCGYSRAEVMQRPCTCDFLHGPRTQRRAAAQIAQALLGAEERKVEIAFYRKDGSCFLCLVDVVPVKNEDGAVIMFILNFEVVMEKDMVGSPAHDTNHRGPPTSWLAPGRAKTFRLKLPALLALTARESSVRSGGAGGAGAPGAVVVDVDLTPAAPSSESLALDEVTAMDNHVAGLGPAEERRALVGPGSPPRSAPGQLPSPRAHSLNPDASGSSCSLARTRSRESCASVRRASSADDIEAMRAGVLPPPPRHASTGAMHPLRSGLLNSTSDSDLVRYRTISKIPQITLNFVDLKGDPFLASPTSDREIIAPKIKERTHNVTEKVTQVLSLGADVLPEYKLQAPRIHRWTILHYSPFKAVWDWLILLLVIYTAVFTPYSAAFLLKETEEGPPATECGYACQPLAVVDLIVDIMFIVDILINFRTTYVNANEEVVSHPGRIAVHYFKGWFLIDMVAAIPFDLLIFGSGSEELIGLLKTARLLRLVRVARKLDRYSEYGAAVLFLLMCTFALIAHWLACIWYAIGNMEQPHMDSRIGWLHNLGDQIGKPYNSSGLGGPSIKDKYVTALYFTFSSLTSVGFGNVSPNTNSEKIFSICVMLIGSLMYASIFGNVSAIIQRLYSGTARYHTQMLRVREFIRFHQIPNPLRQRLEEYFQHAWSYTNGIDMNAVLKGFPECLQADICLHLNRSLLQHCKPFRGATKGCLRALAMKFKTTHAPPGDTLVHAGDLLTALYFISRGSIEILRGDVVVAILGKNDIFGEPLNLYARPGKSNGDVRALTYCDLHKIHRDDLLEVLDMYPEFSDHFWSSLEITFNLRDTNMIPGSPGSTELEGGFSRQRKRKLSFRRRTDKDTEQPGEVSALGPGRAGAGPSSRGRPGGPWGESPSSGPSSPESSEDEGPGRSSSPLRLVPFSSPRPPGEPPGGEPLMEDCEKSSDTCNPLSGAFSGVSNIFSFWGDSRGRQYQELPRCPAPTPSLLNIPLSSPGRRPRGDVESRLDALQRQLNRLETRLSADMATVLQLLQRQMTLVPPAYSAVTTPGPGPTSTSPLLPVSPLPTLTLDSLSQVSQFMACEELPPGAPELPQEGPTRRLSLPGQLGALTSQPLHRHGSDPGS
row,Compound,"hERG current change (%, negative = inhibition) at 1uM [%]"
1,Cc1cccc(NC(=O)CN2C(=O)N/C(=C/c3cc(C)n(-c4ccncc4)c3C)C2=O)c1,4.64
2,O=C(CO/N=C/c1ccc(OC(F)F)cc1)NC1CCCCC1,8.77
3,CC(N=C(NS(=O)(=O)c1ccc(Cl)cc1)c1ccccc1)C(=O)O (centres unmarked),12.1
4,CC(NC(=O)c1cc(-c2ccncc2)nc2ccc(Br)cc12)C1CCCO1 (centres unmarked),8.33
5,CCc1ccc2[nH]c(=O)c(CN(CC3CCCO3)C(=S)NCc3ccco3)cc2c1 (centres unmarked),1.12
6,Cc1ccc2c(c1)c1c(n2CC(O)CNC2CCCCC2)CCCC1.Cl (centres unmarked),2.28
7,O=C(Nc1nccs1)c1c(O)c2cccc3c2n(c1=O)CCC3,12
8,Cc1ccc(C(=O)Nc2ccc(S(=O)(=O)NC3=NCCCCC3)cc2)c(C)c1,2.62
9,CCc1c(C(C)S(=O)(=O)c2ccccc2)[nH]c(=O)n1CC (centres unmarked),15
10,COc1ccc(C(C(=O)NC2CCCC2)N(Cc2cccnc2)C(=O)Cc2cccs2)c(OC)c1 (centres unmarked),12
11,O=C(CN1C(=O)c2ccccc2C1=O)Nc1cccc([N+](=O)[O-])c1,10.3
12,CCOC(=O)/C=C/C(=O)NNC(=O)c1ccccc1Cl,7.82
13,Cc1ccccc1N1CCN(C(=O)[C@@H]2CCCN2C2=NS(=O)(=O)c3ccccc32)CC1,10.8
14,CCOC(=O)/C(=C\c1cccnc1)C(=O)c1cc(C(C)=O)c(Nc2ccccc2)s1,11.9
15,S=C(Nc1ccccc1)N1CCCCC1,4.67
16,O=C(CN1CCN(S(=O)(=O)c2ccc(Br)cc2)CC1)Nc1ccc(F)cc1F,-10.1
17,CCSc1ncc(/C=N/Nc2ccc(F)cc2)n1C,3.79
18,CC1(C)CC(=O)C(C2NCCc3ccccc32)=C(O)C1 (centres unmarked),18.1
19,COc1ccc(/C=N/N2CCN(C3c4ccccc4-c4ccccc43)CC2)cc1OC,12.9

row,Compound,"hERG current change (%, negative = inhibition) at 1uM [%]"
1,CCOc1ccc([N+](=O)[O-])c(N)c1,-2.68
2,CCC(=O)N=c1sc2ccccc2n1-c1ccccc1,6.78
3,COC(=O)c1ccc(COc2ccccc2OC)o1,16.3
4,CN(c1ccccc1C(=O)Nc1ccc2c(c1)OCO2)S(C)(=O)=O,0.848
5,CN(C)c1ccc(C=Nc2cnn(C)c2C(N)=O)cc1,3.48
6,COC(=O)c1[nH]c2ccccc2c1NC(=O)C(C)N1CCN(C(=O)c2ccco2)CC1 (centres unmarked),-13.1
7,CCC(=O)Nc1ccc(OCc2nnc3c4ccccc4c(C)nn23)cc1,-5.64
8,O=C(Cn1c(=O)n(Cc2ccccc2)c(=O)c2ccccc21)NCc1ccco1,11.7
9,Cc1ccc(C2=NN(S(C)(=O)=O)C(c3cccs3)C2)cc1 (centres unmarked),2.96
10,O=C1c2ccccc2C(=O)N1CC(O)COCc1ccccc1 (centres unmarked),17.6
11,Fc1cc(F)cc(-c2c(-c3ccccc3)ncc3ccc(F)cc23)c1,13.4
12,C/C(=N\O)c1noc(C)c1C(=O)Nc1nccs1,13.1
13,CCn1c(SCC(=O)OCc2ccccc2)nc2c1c(=O)n(C)c(=O)n2C,-9.11
14,CC(NCc1cccs1)c1ccccc1.Cl (centres unmarked),11.4
15,Cc1cccc(NNC(N)=S)c1C,-2.57
16,Cc1ccc(S(=O)(=O)c2c(C)nn(-c3ccccc3)c2OC(=O)c2ccco2)cc1,5.81
17,O=C(CCC(=O)N1CCOc2ccccc21)Nc1cc(F)ccc1F,2.8
18,CCOC(=O)N1CCN(C(=O)CSc2nnc(COc3ccc(Cl)cc3)o2)CC1,-2.74
19,O=C(NC(=S)NNC(=O)[C@H]1C[C@@H]1c1ccccc1)c1cccc(F)c1,18.1

row,Compound,"hERG current change (%, negative = inhibition) at 1uM [%]"
1,CC(C)NC[C@H](O)c1ccc(O)c(O)c1.Cl,-0.439
2,CCN1CCN(Cc2nc3ccc([N+](=O)[O-])cc3c(=O)n2-c2ccccc2F)CC1,5.29
3,O=C1C2CCCN2C(c2cccc(Br)c2)N1c1ccc(F)cc1 (centres unmarked),0.674
4,CCC(Oc1ccc(Br)cc1)C(=O)N1CCN(c2ncccn2)CC1 (centres unmarked),4.19
5,CC(=O)c1cc(-c2ccc(F)cc2)n(CCC(=O)Nc2cc(C)[nH]n2)c1C,11.7
6,NC(=O)CSc1nnc(-c2cccc(S(=O)(=O)N3CCOCC3)c2)n1C1CCCCCC1,-2.36
7,CCOc1ccc(/C=C/c2[nH]c(=O)[nH]c(=O)c2[N+](=O)[O-])cc1,10.2
8,CC1(C)Cc2c(sc3c2C(=O)N(c2ccccc2)C2=NCCN23)CS1.Cl,8.49
9,O=C(CCC(=O)N(CC(=O)NC1CCCCC1)Cc1ccccc1)Nc1ccccn1,13.9
10,CC(=O)NS(=O)(=O)c1ccc(NC(=O)/C=C/c2ccccc2)cc1,13
11,O=C(C1CC(=O)N(c2ccc(F)cc2)C1)N1CCN(c2ccccc2)CC1 (centres unmarked),-13.6
12,CCc1nnc(SCC(=O)Nc2ccccc2)n1CC1CCCO1 (centres unmarked),6.7
13,CC(C)c1nnc(NC(=O)COC(=O)/C=C/c2ccc([N+](=O)[O-])cc2)s1,7.85
14,CC(C)(C)c1ccc(CCC2OCC(CN3CCOCC3)O2)cc1 (centres unmarked),4.49
15,O=C(O)C1CCN(S(=O)(=O)c2cccc3nonc23)CC1,14.7
16,COc1cc(C(=O)OCc2cccc(OC)c2OC)ccc1OCC(=O)N1CCOCC1,2.56
17,CC(C)[N+]1(C)[C@@H]2CC[C@H]1CC(OC(=O)C(CO)c1ccccc1)C2.O.[Br-] (some centres unmarked),9.02
18,Cc1ccc(Cn2ccc(NC(=O)c3cc(-c4ccc(Br)cc4)on3)n2)cc1,18.6
